# Assay results: publication PMC4336329 (PLoS ONE, 2015)
# The whole screen tested about 310,000 compounds, of which about 2,200 (0.71%) showed an effect of 50% or more. Effects have a minus sign here. This is one part of the list.
# Molecular target: human ether-à-go-go-related gene (hERG) potassium channel (human, UniProt Q12809)
# Experiment: primary screen, population patch clamp on CHO cells stably expressing hERG
# Chain of human ether-à-go-go-related gene (hERG) potassium channel (Q12809 whole entry, looked up): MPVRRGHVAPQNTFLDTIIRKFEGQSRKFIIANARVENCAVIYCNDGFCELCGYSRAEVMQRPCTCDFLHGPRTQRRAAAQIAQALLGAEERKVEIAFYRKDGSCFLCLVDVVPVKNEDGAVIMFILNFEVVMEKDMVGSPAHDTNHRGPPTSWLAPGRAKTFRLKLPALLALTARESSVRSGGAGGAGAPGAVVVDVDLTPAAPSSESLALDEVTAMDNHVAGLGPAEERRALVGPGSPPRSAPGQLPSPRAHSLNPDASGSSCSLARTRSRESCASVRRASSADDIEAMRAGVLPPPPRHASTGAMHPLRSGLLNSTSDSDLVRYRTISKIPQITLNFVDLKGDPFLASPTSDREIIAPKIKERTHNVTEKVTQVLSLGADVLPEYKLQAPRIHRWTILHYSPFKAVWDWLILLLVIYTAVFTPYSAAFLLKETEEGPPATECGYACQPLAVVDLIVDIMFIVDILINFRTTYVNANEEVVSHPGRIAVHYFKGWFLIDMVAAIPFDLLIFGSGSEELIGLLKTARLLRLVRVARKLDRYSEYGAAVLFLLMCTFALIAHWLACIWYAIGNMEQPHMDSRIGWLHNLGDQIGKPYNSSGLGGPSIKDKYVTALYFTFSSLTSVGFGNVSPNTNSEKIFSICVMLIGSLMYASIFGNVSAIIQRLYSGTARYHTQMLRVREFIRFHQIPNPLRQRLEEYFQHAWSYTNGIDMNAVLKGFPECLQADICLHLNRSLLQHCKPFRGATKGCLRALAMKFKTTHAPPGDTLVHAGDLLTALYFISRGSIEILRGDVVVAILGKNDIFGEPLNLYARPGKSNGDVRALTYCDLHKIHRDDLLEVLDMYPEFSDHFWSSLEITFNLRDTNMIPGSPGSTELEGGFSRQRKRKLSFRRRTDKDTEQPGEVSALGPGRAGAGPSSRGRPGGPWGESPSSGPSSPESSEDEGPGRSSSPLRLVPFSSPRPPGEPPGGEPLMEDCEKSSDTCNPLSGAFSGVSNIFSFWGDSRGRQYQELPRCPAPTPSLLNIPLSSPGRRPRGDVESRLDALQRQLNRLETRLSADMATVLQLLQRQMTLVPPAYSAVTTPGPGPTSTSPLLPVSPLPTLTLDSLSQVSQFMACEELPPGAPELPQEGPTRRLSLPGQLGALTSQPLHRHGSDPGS
row,Compound,"hERG current change (%, negative = inhibition) at 1uM [%]"
1,Cn1cnnc1SCc1nnc(-c2ccccc2Br)o1,5.3
2,CC(=O)Nc1sc2c(c1CN1CCN(c3ccccn3)CC1)CCCC2,-12.3
3,CC(C)c1ccc(S(=O)(=O)c2n[nH]n3c2nc(=O)c2ccccc23)cc1,7.77
4,CCN(CC)S(=O)(=O)c1cccc(C(=O)N/N=C/c2ccccc2OCC(=O)O)c1,9.96
5,COc1ccccc1N1CCN(C2CCN(S(=O)(=O)c3ccc(NC(C)=O)cc3)CC2)CC1,5.87
6,CC1(C)CC(=O)C(C=NCCN2CCN(CCc3ccccc3)CC2)=C(O)C1,-13.8
7,CCC(=O)Nc1ccc(S(=O)(=O)Nc2cccnc2)cc1,12.3
8,Oc1[nH]c2ccccc2c1OCc1ccncc1,6.37
9,CCNc1nc(CSc2ccccc2)nc2sc(C)c(C)c12,6.57
10,CN(C)C(=S)SSC(=S)N(C)C,11.6
11,CCN1CCN(C(c2cccs2)C(C)NC(=O)c2cccc(OC)c2OC)CC1 (stereo not shown),2.53
12,COc1ccc(/C=N/NC(=S)Nc2cccc(C(=O)O)c2)cc1OC,9.64
13,Cc1c(N(C)S(=O)(=O)c2cc(C(=O)Nc3ccccn3)ccc2Cl)c(=O)n(-c2ccccc2)n1C,19
14,COC(=O)CN(Cc1ccccc1)S(=O)(=O)c1ccc(OC)c(OC)c1,16.9
15,COc1cc2c(cc1OC)C(C(=O)NCc1ccco1)C1c3ccccc3CCN1C2=O (stereo not shown),5.61
16,Cl.O=C(NC1CCN(Cc2ccccc2)CC1)C12CC3CC(CC(C3)C1)C2,-7.72
17,Cc1ccc(NC(=O)C2CC(=O)n3c(nc4ccccc43)N2)cc1Cl (stereo not shown),15.6
18,COc1cc(N2C(=O)CC3(CCCC3)CC2=O)cc(OC)c1OC,10
19,COC(=O)c1sccc1NC(=O)c1ccccc1F,12.7
20,Cc1ccc(NS(=O)(=O)c2cccc(C(=O)N3CCOCC3)c2)cc1,8.52
21,C=CCNC(=O)c1ccccc1NC(=O)c1ccccc1N(C)S(C)(=O)=O,7.16
22,CN1CCc2c(OCC(=O)N3N=C(c4cccs4)CC3c3ccc(F)cc3)cccc2C1=O (stereo not shown),5.69

row,Compound,"hERG current change (%, negative = inhibition) at 1uM [%]"
1,COCc1cc(C)nc(Nc2cc(C)ccc2C)c1C#N,15.2
2,NC(=S)NNc1cccc(Cl)c1,9.14
3,CCOC(=O)N1CCN(CC(O)c2c[nH]c3ccc(OC)cc23)CC1 (stereo not shown),18
4,COc1ccc(CCNC(C(=O)Nc2cc(C)cc(C)c2)c2ccccc2)cc1 (stereo not shown),0.993
5,COc1cc(/C=N/NC(=O)C2CCN(CC(O)COCc3ccccc3)CC2)cc(OC)c1OC (stereo not shown),-34.2
6,C=C1C2[C@H](OC(C)=O)[C@@H]3CC(=O)[C@]4(C)OC[C@@]3(C)[C@@]4(O)[C@@H](OC(C)=O)[C@H](OC(C)=O)[C@@]2(COC(=O)c2ccccc2)[C@@H](OC(C)=O)C[C@@H]1O (stereo partly shown),9.51
7,CCc1cc2c(=O)c(-c3nc4ccccc4n3C)c(C)oc2c(CN2CCN(CCO)CC2)c1O,6.39
8,O=C(CSc1nc(C2CC2)nc2ccccc12)Nc1ccccc1,4.52
9,Cc1ccc(C2(O)C(=O)c3ccccc3C2=O)c(O)c1C,1.6
10,COc1ccc(NC(=O)c2cccc(S(=O)(=O)N3CCN(C)CC3)c2)c(OC)c1,8.74
11,COc1ccc(N(CC(=O)Nc2cc(OC)c(OC)cc2C(=O)O)S(=O)(=O)c2c(C)noc2C)cc1,15.1
12,CC1=C(C(=O)OCc2ccccc2)C(c2cccnc2)n2nnnc2N1 (stereo not shown),-1.33
13,O=C(Nc1ccccc1)Nc1ccc(NC(=O)c2ccccc2O)cc1,11.4
14,COCCCNC(=S)N1CCN(c2nc(-c3cccc(OC)c3)cs2)CC1,14.9
15,Cc1ccc(-c2ccc(=O)n(CCC(=O)NCc3ccccn3)n2)cc1,-37.8
16,CC(C)(CC(=O)O)CC(=O)NCc1c(Cl)cccc1Oc1ccccc1,14.8
17,CN(C)S(=O)(=O)c1cc(NC(=O)[C@H](Cc2ccccc2)N2C(=O)c3ccccc3C2=O)ccc1Cl,5.04
18,COC(=O)COc1ccc(/C=C2\C(=O)NC(=S)N(c3ccc(C)cc3)C2=O)cc1OC,10.8
19,CCOC(=O)CNC(=O)N(CCOC)CC1CCCN(C2Cc3ccccc3C2)C1 (stereo not shown),1.45
20,O=C(CCCOc1ccc(Cl)cc1Cl)Nc1cccnc1,9.26
21,CN(C(=O)CSc1nnc(-c2ccc(F)cc2)c2ccccc12)C1CCS(=O)(=O)C1 (stereo not shown),2.06
